This is one part of the list.
How the values were obtained:
Assay in all cases: glycan array binding signal (z-score within array); higher = stronger binding
Settings in all cases: glycan notation: IUPAC condensed, linker removed
[1] = biological target: Gal(b1-3)GlcNAc(b1-3)Gal(b1-4)GlcNAc(b1-2)[Gal(b1-3)GlcNAc(b1-3)Gal(b1-4)GlcNAc(b1-6)]Man(a1-6)[Gal(b1-3)GlcNAc(b1-3)Gal(b1-4)GlcNAc(b1-2)Man(a1-3)]Man(b1-4)GlcNAc(b1-4)[Fuc(a1-6)]GlcNAc
Summary of the method: (§1)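 The binding signal is a Z-score computed within each array and averaged over linkers. Arrays of the same protein sequence at different concentrations or buffers were also averaged together. Data originate from 3228 arrays in the Consortium for Functional Glycomics database, kept only where the protein sequence was available.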

[2] = biological target: Gal(b1-3)GlcNAc(b1-3)Gal(b1-4)GlcNAc(b1-3)Gal(b1-4)GlcNAc(b1-2)[Gal(b1-3)GlcNAc(b1-3)Gal(b1-4)GlcNAc(b1-3)Gal(b1-4)GlcNAc(b1-6)]Man(a1-6)[Gal(b1-3)GlcNAc(b1-3)Gal(b1-4)GlcNAc(b1-3)Gal(b1-4)GlcNAc(b1-2)Man(a1-3)]Man(b1-4)GlcNAc(b1-4)[Fuc(a1-6)]GlcNAc
Summary of the method: as §1

[3] = biological target: Gal(b1-3)GlcNAc(b1-3)Gal(b1-4)GlcNAc(b1-6)[Gal(b1-3)GlcNAc(b1-3)]Gal(b1-4)Glc
Summary of the method: as §1

[4] = biological target: Gal(b1-3)GlcNAc(b1-3)Gal(b1-4)[Fuc(a1-3)]GlcNAc
Summary of the method: as §1

[5] = biological target: Gal(b1-3)GlcNAc(b1-3)Gal(b1-4)[Fuc(a1-3)]GlcNAc(b1-6)[Gal(b1-3)GlcNAc(b1-3)]Gal(b1-4)Glc
Summary of the method: as §1

[6] = biological target: Gal(b1-3)GlcNAc(b1-3)GalNAc
Summary of the method: as §1

[7] = biological target: Gal(b1-3)GlcNAc(b1-6)Gal(b1-4)GlcNAc
Summary of the method: as §1

[8] = biological target: Gal(b1-3)GlcNAc(b1-6)GalNAc
Summary of the method: as §1

[9] = biological target: Gal(b1-3)GlcNAc(b1-6)[Gal(b1-3)]GalNAc
Summary of the method: as §1

Gal(b1-3)GlcNAc6S = biological target: Gal(b1-3)GlcNAc6S
Summary of the method: as §1

[10] = biological target: Gal(b1-3)[Fuc(a1-4)]GlcNAc
Summary of the method: as §1

[11] = biological target: Gal(b1-3)[Fuc(a1-4)]GlcNAc(b1-2)Man
Summary of the method: as §1

[12] = biological target: Gal(b1-3)[Fuc(a1-4)]GlcNAc(b1-2)Man(a1-3)[Gal(b1-3)[Fuc(a1-4)]GlcNAc(b1-2)Man(a1-6)]Man(b1-4)GlcNAc(b1-4)[Fuc(a1-6)]GlcNAc
Summary of the method: as §1

[13] = biological target: Gal(b1-3)[Fuc(a1-4)]GlcNAc(b1-3)Gal(b1-3)[Fuc(a1-4)]GlcNAc
Summary of the method: as §1

[14] = biological target: Gal(b1-3)[Fuc(a1-4)]GlcNAc(b1-3)Gal(b1-4)[Fuc(a1-3)]GlcNAc
Summary of the method: as §1

[15] = biological target: Gal(b1-3)[Fuc(a1-4)]GlcNAc(b1-6)GalNAc
Summary of the method: as §1

[16] = biological target: Gal(b1-3)[GlcNAc(b1-6)]GalNAc
Summary of the method: as §1

[17] = biological target: Gal(b1-3)[Neu5Ac(a2-6)]GalNAc
Summary of the method: as §1

[18] = biological target: Gal(b1-3)[Neu5Ac(a2-6)]GlcNAc(b1-4)Gal(b1-4)Glc
Summary of the method: as §1

[19] = biological target: Gal(b1-3)[Neu5Ac(b2-6)]GalNAc
Summary of the method: as §1

Gal(b1-4)Gal = biological target: Gal(b1-4)Gal
Summary of the method: as §1

[20] = biological target: Gal(b1-4)GalNAc(a1-3)[Fuc(a1-2)]Gal(b1-4)GlcNAc
Summary of the method: as §1

[21] = biological target: Gal(b1-4)GalNAc(b1-3)[Fuc(a1-2)]Gal(b1-4)GlcNAc
Summary of the method: as §1

Gal(b1-4)Glc = biological target: Gal(b1-4)Glc
Summary of the method: as §1

Gal(b1-4)Glc6S = biological target: Gal(b1-4)Glc6S
Summary of the method: as §1

Gal(b1-4)GlcNAc = biological target: Gal(b1-4)GlcNAc
Summary of the method: as §1

[22] = biological target: Gal(b1-4)GlcNAc(a1-6)Gal(b1-4)GlcNAc
Summary of the method: as §1

Gal(b1-4)GlcNAc(b1-2)Man = biological target: Gal(b1-4)GlcNAc(b1-2)Man
Summary of the method: as §1

[23] = biological target: Gal(b1-4)GlcNAc(b1-2)Man(a1-3)Man(b1-4)GlcNAc(b1-4)GlcNAc
Summary of the method: as §1

[24] = biological target: Gal(b1-4)GlcNAc(b1-2)Man(a1-3)[Gal(b1-4)GlcNAc(b1-2)Man(a1-6)]Man(b1-4)GlcNAc(b1-4)GlcNAc
Summary of the method: as §1

[25] = biological target: Gal(b1-4)GlcNAc(b1-2)Man(a1-3)[Gal(b1-4)GlcNAc(b1-2)Man(a1-6)]Man(b1-4)GlcNAc(b1-4)[Fuc(a1-6)]GlcNAc
Summary of the method: as §1

[26] = biological target: Gal(b1-4)GlcNAc(b1-2)Man(a1-3)[Gal(b1-4)GlcNAc(b1-2)Man(a1-6)][Gal(b1-4)GlcNAc(b1-4)]Man(b1-4)GlcNAc(b1-4)[Fuc(a1-6)]GlcNAc
Summary of the method: as §1

[27] = biological target: Gal(b1-4)GlcNAc(b1-2)Man(a1-3)[Gal(b1-4)GlcNAc(b1-2)Man(a1-6)][GlcNAc(b1-4)]Man(b1-4)GlcNAc(b1-4)[Fuc(a1-6)]GlcNAc
Summary of the method: as §1

[28] = biological target: Gal(b1-4)GlcNAc(b1-2)Man(a1-3)[GlcNAc(b1-2)Man(a1-6)]Man(b1-4)GlcNAc(b1-4)GlcNAc
Summary of the method: as §1

[29] = biological target: Gal(b1-4)GlcNAc(b1-2)Man(a1-3)[GlcNAc(b1-4)][Gal(b1-4)GlcNAc(b1-2)Man(a1-6)]Man(b1-4)GlcNAc(b1-4)GlcNAc
Summary of the method: as §1

[30] = biological target: Gal(b1-4)GlcNAc(b1-2)Man(a1-3)[Man(a1-6)]Man(b1-4)GlcNAc(b1-4)GlcNAc
Summary of the method: as §1

[31] = biological target: Gal(b1-4)GlcNAc(b1-2)Man(a1-6)Man(b1-4)GlcNAc(b1-4)GlcNAc
Summary of the method: as §1

[32] = biological target: Gal(b1-4)GlcNAc(b1-2)Man(a1-6)[GlcNAc(b1-2)Man(a1-3)]Man(b1-4)GlcNAc(b1-4)GlcNAc
Summary of the method: as §1

B1: SAOUHSC 00176 (Staphylococcus aureus) (protein)
chain: MSKILKCITLAVVMLLIVTACGPNRSKEDIDKALNKDNSKDKPNQLTMWVDGDKQMAFYKKITDQYTKKTGIKVKLVNIGQNDQLENISLDAPAGKGPDIFFLAHDNTGSAYLQGLAAEIKLSKDELKGFNKQALKAMNYDNKQLALPAIVETTALFYNKKLVKNAPQTLEEVEANAAKLTDSKKKQYGMLFDAKNFYFNYPFLFGNDDYIFKKNGSEYDIHQLGLNSKHVVKNAERLQKWYDKGYLPKAATHDVMIGLFKEGKVGQFVTGPWNINEYQETFGKDLGVTTLPTDGGKPMKPFLGVRGWYLSEYSKHKYWAKDLMLYITSKDTLQKYTDEMSEITGRVDVKSSNPNLKVFEKQARHAEPMPNIPEMRQVWEPMGNASIFISNGKNPKQALDEATNDITQNIKILHPSQNDKKGD
glycan array binding signal (z-score) [1]: 0.211 | glycan array binding signal (z-score) [2]: 0.056 | glycan array binding signal (z-score) [3]: -0.098 | glycan array binding signal (z-score) [4]: -0.177 | glycan array binding signal (z-score) [5]: -0.098 | glycan array binding signal (z-score) [6]: -0.105 | glycan array binding signal (z-score) [7]: -0.058 | glycan array binding signal (z-score) [8]: -0.03 | glycan array binding signal (z-score) [9]: -0.098 | glycan array binding signal (z-score) (Gal(b1-3)GlcNAc6S): -0.116 | glycan array binding signal (z-score) [10]: -0.048 | glycan array binding signal (z-score) [11]: 0.062 | glycan array binding signal (z-score) [12]: 0.406 | glycan array binding signal (z-score) [13]: -0.218 | glycan array binding signal (z-score) [14]: -0.127 | glycan array binding signal (z-score) [15]: -0.159 | glycan array binding signal (z-score) [16]: 0.043 | glycan array binding signal (z-score) [17]: -0.062 | glycan array binding signal (z-score) [18]: -0.049 | glycan array binding signal (z-score) [19]: -0.108 | glycan array binding signal (z-score) (Gal(b1-4)Gal): -0.101 | glycan array binding signal (z-score) [20]: -0.146 | glycan array binding signal (z-score) [21]: -0.108 | glycan array binding signal (z-score) (Gal(b1-4)Glc): 0.011 | glycan array binding signal (z-score) (Gal(b1-4)Glc6S): -0.018 | glycan array binding signal (z-score) (Gal(b1-4)GlcNAc): -0.096 | glycan array binding signal (z-score) [22]: -0.168 | glycan array binding signal (z-score) (Gal(b1-4)GlcNAc(b1-2)Man): -0.018 | glycan array binding signal (z-score) [23]: -0.068 | glycan array binding signal (z-score) [24]: -0.149 | glycan array binding signal (z-score) [25]: -0.032 | glycan array binding signal (z-score) [26]: -0.097 | glycan array binding signal (z-score) [27]: -0.127 | glycan array binding signal (z-score) [28]: -0.119 | glycan array binding signal (z-score) [29]: -0.147 | glycan array binding signal (z-score) [30]: 1.03 | glycan array binding signal (z-score) [31]: -0.047 | glycan array binding signal (z-score) [32]: -0.013
